# Source: PMC12136788
# The list shows a part of the results.
# B1: ENSG00000118705:stop:overlap|stop_codon|ENSG00000118705|stop_codon|NA|stop_codon (ssRNA)
# RNA: GGGAGUUCUACAGUCCGACGAUCUGACGUUUCUGGCUGGCAAUCGGAUGCUGGCCCAGCAGGCAGUCAAGAGAACAGCACAUUAGUUCCAGAAGAAAGAUGGAAAUUCUGAAAACUGAAUGUCAAGAAAAGGAGUCAAGAACACAACAGAGGAUUGAGCAUCA
# B2: chr9:135932998:135933099:-|3pUTR|ENSG00000130560|unk|FALSE|unique (ssRNA)
# RNA: GGGAGUUCUACAGUCCGACGAUCGCUGCUUGAAUUGCCGUGUAGACAUUUGCUUGGAGAGUCCACUUGUUAUUUGACGGAGGUAGGUUUCAACCCAGAGUUAAUGUCAAGCAUGCUAAUUUAACUAGUCACUCACAGAUGACUCAACAGAGGAUUGAGCAUCA
# B3: chr9:133361993:133362109:-|3pUTR|ENSG00000148248|msi1_unk|total|mutant (ssRNA)
# RNA: GGGAGUUCUACAGUCCGACGAUCGGCAGGUUUCUGCUCAUAAGUGCUUUUGGAAGUCACCUACCUUUUUAACACAGCCGAACCCGUCCCAACGCGUUUGCAAAUAUUCCCCUGGCCGCCUACUUCCUUACCCCCGAAUAUUGGCAACAGAGGAUUGAGCAUCA
# B4: chr16:67991837:67991979:-|CDS|ENSG00000167261|control|control|control (ssRNA)
# RNA: GGGAGUUCUACAGUCCGACGAUCAACGACACUCAGAAAUUGGCCUGCCUCAUCGGUGUAGAGGGUGGCCACUCGCUGGACAAUAGCCUCUCCAUCUUACGUACCUUCUACAUGCUGGGAGUGCGCUACCUGACGCUCACCCACCAACAGAGGAUUGAGCAUCA
# B5: chr12:50175971:50176072:-|3pUTR|ENSG00000050405|msi1|total|mutant (ssRNA)
# RNA: GGGAGUUCUACAGUCCGACGAUCCACAGUAUUCUCAGGGUGAAAUUAAACCAACUACCGGCCUUUUUCUUGGGAUGAUUUUCCCGUCUUAAGGUUUGGGGACAUUAUAAACUUGAGUACAUUUGUUGUACACAGUUGAUAUUCCAACAGAGGAUUGAGCAUCA
# B6: ENSG00000104980:stop:overlap|stop_codon|ENSG00000104980|stop_codon|NA|stop_codon (ssRNA)
# RNA: GGGAGUUCUACAGUCCGACGAUCUGCGGACGAGCGAGGUGCUACGGAAGAAGCUUGGGGAGCUGACGGGCACCGUGAAGGAGUAGAGCCUUCACGAAGUCAGUAAAAGUGAUCUCGGCCGGAAAAUCAAGGAGGGCGUGGAGGCAACAGAGGAUUGAGCAUCA
# B7: ENSG00000178234:stop:overlap|stop_codon|ENSG00000178234|stop_codon|NA|stop_codon (ssRNA)
# RNA: GGGAGUUCUACAGUCCGACGAUCUGUUAUCUGUUUCUAUAAUGAAGCGUUUUCUGCCUUGCUUCGGACAGUGCACAGUGUCAUAGACCGCACGCCAGCACACCUGCUUCAUGAGAUCAUCCUUGUGGAUGAUGAUAGUGACUUCAACAGAGGAUUGAGCAUCA
# B8: chr10:5457295:5457390:+|3pUTR|ENSG00000173848|msi1_unk|total|mutant (ssRNA)
# RNA: GGGAGUUCUACAGUCCGACGAUCUCUGGAUUCAUCAUGGCUUUCUAAUACCAAUUGUAAUAUUUACAAUAUUCACCAAAACUCCGAAUUUUGCAAAUGCUGGAAUUCUGCCAGUGUUUCUUUGCUAAGCCUUGCAUGCAAAAUCAACAGAGGAUUGAGCAUCA
# B9: chr1:152033651:152033752:-|CDS|ENSG00000163191|unk|total|mutant (ssRNA)
# RNA: GGGAGUUCUACAGUCCGACGAUCGGAUGGUUAUAACUACACUCUCUCCAAGACAGAGUUCCUAAGCUUCAUGAAUACAGAACCCGCUGCCUUCACAAAGGUACUGGUCCCUGUCUCCCCCACUUCCCCAAACUACCCACAACACAACAGAGGAUUGAGCAUCA
# B10: chr12:120700859:120700960:+|3pUTR|ENSG00000110917|msi1|FALSE|unique (ssRNA)
# RNA: GGGAGUUCUACAGUCCGACGAUCUCUUUGCAUCUGUGUGGCUUGCUUCCAGUCUGGCCUGUCCUUUCCAGCUGCCUUUUGUCUAGCCUGCUAUGGGGGGCCAGAUUAUCUUGAUAAGAGCAGGUGAUUUGGGGACUAGCUGGGCAACAGAGGAUUGAGCAUCA
# B11: chr14:71723713:71723820:+|CDS|ENSG00000197555|unk|FALSE|unique (ssRNA)
# RNA: GGGAGUUCUACAGUCCGACGAUCGCUGCCCCCUCACAGCUCGCACCAUCCUUCUCCUCCUCUUCCUCCUCCUCCUCUGGUCCUAGGAGUUUUUACCCUCGCCAGGGCGCUACUAGCAAGUACCUGAUUGGAUGGAAAAAACCCCAACAGAGGAUUGAGCAUCA
# B12: chr16:30989255:30992820:-|three_prime_utr|ENSG00000099365|control|control|control (ssRNA)
# RNA: GGGAGUUCUACAGUCCGACGAUCGCAGACCCUGGUGUCCCUGGACCUCACCGGGCCAUGGACCCCCCCCCCGUCCCCGCACGUAGAUCGCAGCAGGCGUGAUUACACAUGCACACCAACAUGCAUGCCGCCGGCACAUGCUCGCAACAGAGGAUUGAGCAUCA
# B13: chr3:111884732:111884833:+|CDS|ENSG00000144824|msi1|FALSE|unique (ssRNA)
# RNA: GGGAGUUCUACAGUCCGACGAUCCUUCAACCCAAGUUAACUAGACACAAGGAGCUUGCAUCUGAAAACAUCAAUUUGAGAACUAGGAAGUACUCCAGCAGCAGCCUGAGUCACAUGGGAGCCUACAGCCGAUCACUUCCCAGGCAACAGAGGAUUGAGCAUCA
# B14: chr1:28768968:28769069:+|3pUTR|ENSG00000198492|msi1|FALSE|bound_elsewhere (ssRNA)
# RNA: GGGAGUUCUACAGUCCGACGAUCGACUGCAGCAACGGUUGCAUCUGCAUAUCCUAAGAGGAAAAAAUGACCUUCAAGAGAAUUAGGACUUUUUUCUUAAUUUCACUGACUUCAGAGACGAUUGCAGACUUGCAGUUUAAGUAUCAACAGAGGAUUGAGCAUCA
# B15: chr11:18297563:18297669:-|CDS|ENSG00000110756|unk|total|mutant (ssRNA)
# RNA: GGGAGUUCUACAGUCCGACGAUCGAUCUAAUUUCUCAACUGGAAGAAUUGAUCUUAAAAUUUGAACCUUUGGAUUCAGCUUGCCGCAGCCGAAGAAGCUCCAUUUCAUCACAUGUAAGUAUUCUCACCUUUAAAGGAUUUUGUCAACAGAGGAUUGAGCAUCA
# B16: chr12:32745429:32745530:+|3pUTR|ENSG00000087470|msi1|total|mutant (ssRNA)
# RNA: GGGAGUUCUACAGUCCGACGAUCCAACGGAAAGAGAAAAGCCUUCCUUUGUUGGCCCUUAAACUGAGUCAAGAUCUGAAAUGCCGAGAUGAUCUCUGACGAUACCUGUAUGUUCUUAUUGUGUAAAUAAAAUUGCUGGUAUGACAACAGAGGAUUGAGCAUCA
# B17: ENSG00000107863:be:win_4551|CDS|ENSG00000107863|bound_else_gene|NA|bound_elsewhere_windowed (ssRNA)
# RNA: GGGAGUUCUACAGUCCGACGAUCCAGCUGUCGCUUUGCCAUCCUGAAAGAGAGCCCCAGGUCACUUCUGGCACAGAAGUCCUCCCACCUUGAAGAGACAGGCUCUGACUCUGGCACUUUGCUCAGCACGUCUUCCCAGGCCUCCAACAGAGGAUUGAGCAUCA
# B18: chr8:39103990:39104232:+|3pUTR|ENSG00000168615|msi1|total|mutant (ssRNA)
# RNA: GGGAGUUCUACAGUCCGACGAUCGUUUUGUCAUUAAGUGUUUAAGUGUUAUUCUGAAUUUUCUACCUCCGUUAUCAUUAAUGCCGUUCCUCAUUGAACAUGUGAUAAUCUAAUACCUGUGAAAACUGACUAAUCAGCUGCCAACAACAGAGGAUUGAGCAUCA
# B19: chr10:119917856:119917957:+|CDS|ENSG00000107651|unk|total|mutant (ssRNA)
# RNA: GGGAGUUCUACAGUCCGACGAUCUAAGAAAAUCACUUUGCCAAGUAUUGGUCGAUUUCGUCACUUUACCAAUGAAACUUUGCCCGAUAUUUUAUUUUAUAACAGCCCCACCUACUGUCAGACAAUUGUGGAAAAAGCCGGAAUCAACAGAGGAUUGAGCAUCA
# B20: chr15:49134392:49134529:-|CDS|ENSG00000166200|unk|FALSE|unique (ssRNA)
# RNA: GGGAGUUCUACAGUCCGACGAUCAUAUUUGCUUUCCUAGACUGAUGAUGGAGAAGAUGAUCUGAAAAAAGGUACACAGUUAUUAGAAAUAUAUGCUUUGGAAAUUCAAAUGUACACAGCACAGAAAAAUAACAAAAAACUUAACAACAGAGGAUUGAGCAUCA
# B21: ENSG00000087269:stop:overlap|stop_codon|ENSG00000087269|stop_codon|NA|stop_codon (ssRNA)
# RNA: GGGAGUUCUACAGUCCGACGAUCGGCUGGCUGGUCUCGAAUUCCCGACCUCAGGUAAUCCACCUGCCUUGGCCCCCCAAUUAUAGGUGUGAGCCACAGCACCCAGCCAAAAAAGUAAUUUUUUUUAGAGUAAUAAUGCUAUAACAACAGAGGAUUGAGCAUCA
# B22: chr7:138585310:138585366:+|3pUTR|ENSG00000122779|msi1_unk|total|mutant (ssRNA)
# RNA: GGGAGUUCUACAGUCCGACGAUCCUCUUUAAGUUGAAAAGUAAAAAAUAUAUGUGGUUUGGAUGUGUGCUUUAAUUCAGCUUCCGAAAUUAAUACCACUACCCGUGAAUUAUAUGGCCUGACAAUAUGAAUCCGGUGUACUGUCAACAGAGGAUUGAGCAUCA
# Molecular target: T1, UNK ZnF1-6 (called full-length) (human, UniProt Q9C0B0 30-357)
# T1 sequence: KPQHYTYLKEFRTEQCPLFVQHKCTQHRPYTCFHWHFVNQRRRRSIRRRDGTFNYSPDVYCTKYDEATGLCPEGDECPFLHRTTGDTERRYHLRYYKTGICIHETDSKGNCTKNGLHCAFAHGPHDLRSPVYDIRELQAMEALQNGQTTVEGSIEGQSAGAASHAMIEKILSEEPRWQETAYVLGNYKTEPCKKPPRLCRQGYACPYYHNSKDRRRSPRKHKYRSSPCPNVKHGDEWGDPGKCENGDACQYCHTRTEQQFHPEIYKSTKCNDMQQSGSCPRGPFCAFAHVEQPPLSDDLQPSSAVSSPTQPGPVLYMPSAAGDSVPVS
# Assay: nsRBNS (natural sequence RNA bind-n-seq); RBNS binding buffer (assumed for nsRBNS): 25 mM Tris pH 7.5, 150 mM KCl, 3 mM MgCl2, 0.01% Triton X-100, 500 ug/ml BSA, 20 U/ml SUPERase-In, 4 C; UNK is unkempt and MSI1 is Musashi-1; names of the RNAs are library labels; protein concentration not given here; high values mean tight binding
row,Binder,binding signal [enrichment R]
1,B1,0.739
2,B2,0.638
3,B3,0.605
4,B4,0.601
5,B5,0.37
6,B6,1
7,B7,0.514
8,B8,0.346
9,B9,0.699
10,B10,0.772
11,B11,0.953
12,B12,0.96
13,B13,0.843
14,B14,0.274
15,B15,0.498
16,B16,0.307
17,B17,0.703
18,B18,0.553
19,B19,0.581
20,B20,0.68
21,B21,0.968
22,B22,0.713
